Experimental data published in publication PMC4336329 (PLoS ONE, 2015).
Out of some 310,000 compounds screened, about 2,200 (0.71%) showed an effect of 50% or more. The effect is printed as a negative number. This is one part of the list.

The compounds below were run against human ether-à-go-go-related gene (hERG) potassium channel (human, UniProt Q12809) (assay: primary screen, population patch clamp on CHO cells stably expressing hERG).
Sequence of human ether-à-go-go-related gene (hERG) potassium channel (Q12809 whole entry, looked up): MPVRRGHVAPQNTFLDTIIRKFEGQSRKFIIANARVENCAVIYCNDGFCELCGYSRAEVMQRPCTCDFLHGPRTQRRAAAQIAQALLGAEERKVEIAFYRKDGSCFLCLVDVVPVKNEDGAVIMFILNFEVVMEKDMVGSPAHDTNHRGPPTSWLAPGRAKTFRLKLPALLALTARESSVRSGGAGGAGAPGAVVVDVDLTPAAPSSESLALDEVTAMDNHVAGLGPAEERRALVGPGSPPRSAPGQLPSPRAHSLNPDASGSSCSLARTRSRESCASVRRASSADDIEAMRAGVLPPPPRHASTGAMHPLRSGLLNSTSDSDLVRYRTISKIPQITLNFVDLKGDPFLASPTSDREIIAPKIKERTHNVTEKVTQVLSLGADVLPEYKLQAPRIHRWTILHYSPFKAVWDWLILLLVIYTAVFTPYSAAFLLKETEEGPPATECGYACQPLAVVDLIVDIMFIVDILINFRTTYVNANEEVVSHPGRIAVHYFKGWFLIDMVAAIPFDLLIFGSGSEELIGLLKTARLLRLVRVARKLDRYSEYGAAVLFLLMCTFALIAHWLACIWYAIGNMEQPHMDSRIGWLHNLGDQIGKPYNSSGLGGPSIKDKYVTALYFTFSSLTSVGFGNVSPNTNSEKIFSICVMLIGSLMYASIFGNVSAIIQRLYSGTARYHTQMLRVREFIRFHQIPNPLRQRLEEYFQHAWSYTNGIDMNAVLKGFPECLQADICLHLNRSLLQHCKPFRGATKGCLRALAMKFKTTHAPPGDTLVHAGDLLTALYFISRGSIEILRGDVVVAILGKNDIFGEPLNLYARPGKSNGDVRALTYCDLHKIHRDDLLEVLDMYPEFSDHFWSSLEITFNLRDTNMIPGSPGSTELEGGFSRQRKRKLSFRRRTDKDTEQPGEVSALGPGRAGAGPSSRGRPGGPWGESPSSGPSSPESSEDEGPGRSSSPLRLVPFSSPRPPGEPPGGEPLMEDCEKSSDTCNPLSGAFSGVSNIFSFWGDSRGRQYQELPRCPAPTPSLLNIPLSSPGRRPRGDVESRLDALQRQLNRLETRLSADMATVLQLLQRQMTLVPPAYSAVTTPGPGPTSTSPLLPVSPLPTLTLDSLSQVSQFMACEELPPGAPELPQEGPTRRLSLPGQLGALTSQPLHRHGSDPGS

SMILES | hERG current change (%, negative = inhibition) at 1uM
COc1cccc(C=Nc2ccc3c(c2)CCC3)c1O | 11.8%
CCSc1nnc(NC(=O)CN2C(=O)C3CC=CCC3C2=O)s1 (stereo not shown) | 20.6%
NC(=O)c1c(NC(=S)Nc2ccc(F)cc2)sc2c1CCCC2 | 9.62%
Cc1ccccc1C(=O)c1cccn1CC(=O)NCc1ccccc1Cl | 17.6%
COCc1ccc(C(=O)Nc2ccc(C(=O)O)cc2)o1 | 9.35%
N#C/C(=C\c1ccccc1O)C(=O)Nc1ccccn1 | 5.77%
CCOC(=O)c1cccc(NC(=O)CCn2nnc3ccccc32)c1 | 3.27%
COc1ccc(CNC(=O)C(OC(=O)c2ccco2)c2ccccc2)cc1 (stereo not shown) | -1.26%
COc1ccccc1C(=O)NC(=O)COC(=O)c1oc2ccccc2c1C | 9.71%
COc1cc(OC)cc(-c2cc3nc(C)c(CCC(=O)O)c(=O)n3[nH]2)c1 | -0.937%
COCCC(=O)N1CCC(Oc2ccc(C(=O)N3CCC(N(C)C)C3)cc2)CC1 (stereo not shown) | 14.1%
CN(C)CCOCCOc1ccc(Cl)cc1Br.O=C(O)C(=O)O | -1.15%
CC(=O)N1c2ccc(S(=O)(=O)N3CCCCC3)cc2CC1C(=O)Nc1cccc(C)c1 (stereo not shown) | 19.1%
Cc1ccc(S(=O)(=O)Cc2cc(-c3ccc(Cl)cc3)no2)cc1 | 13.9%
O=C(c1ccccc1)c1cccn1CC(=O)N1CCN(c2ccccc2)CC1 | 10.7%
Cc1cc(C(=O)CN2C(=O)c3ccccc3C2=O)c(C)n1Cc1cccs1 | 9.88%
O=C(Nc1nnc(C(F)(F)F)s1)c1cccnc1 | 13%
CCOc1ccccc1NC(=O)CCc1nnc2ccc(N3CCC(C)CC3)nn12 | -1.93%
COC(=O)c1cc(S(=O)(=O)N2CCN(c3ccc(OC)cc3)CC2)cn1C | 16.7%
CC(=O)Nc1cc2c(cc1C(=O)C(C)C)OCCO2 | 0.916%
CCc1nnc(NC(=O)CSc2nnc(-c3ccccc3O)n2CC)s1 | -2.15%
O=C(NN=C1CCCCCCCCCCC1)c1cccnc1 | 3.23%
CCOc1ccc(N2CC(C(=O)NCCCN3CCOCC3)CC2=O)cc1 (stereo not shown) | -4.41%
CCCCNC(=O)C1c2cc(OC)c(OC)cc2C(=O)N(C)C1c1cccs1 (stereo not shown) | -0.594%
CC(C)CC(=O)Nc1ccc([N+](=O)[O-])cc1Cl | 8.2%
